Measured values from paper PMC10516938, “Conformational dynamics of cohesin/Scc2 loading complex are regulated by Smc3 acetylation and ATP binding” (Nature Communications, 2023).
Numbering of substitutions follows the chain as printed. Numbers in names are those of the source. Results are given in words; binding and its absence hold for the method and conditions named. Binding seen in cells or lysates may run through a third protein. Some results given as binding are weak or reduced against the parent protein; the word gives no strength.

Key:
Scc1-PK (S. cerevisiae) = target: T1, Scc1-PK (S. cerevisiae) (UniProt Q12158); experiment: co-IP; Scc1-PK immunoprecipitated with anti-PK from whole-cell extracts of cross-linker-treated yeast cells (exponentially grown or late G1 arrested); co-precipitated Smc3-HA, Smc1-Myc or Scc2-FLAG detected by western blot
T1 sequence: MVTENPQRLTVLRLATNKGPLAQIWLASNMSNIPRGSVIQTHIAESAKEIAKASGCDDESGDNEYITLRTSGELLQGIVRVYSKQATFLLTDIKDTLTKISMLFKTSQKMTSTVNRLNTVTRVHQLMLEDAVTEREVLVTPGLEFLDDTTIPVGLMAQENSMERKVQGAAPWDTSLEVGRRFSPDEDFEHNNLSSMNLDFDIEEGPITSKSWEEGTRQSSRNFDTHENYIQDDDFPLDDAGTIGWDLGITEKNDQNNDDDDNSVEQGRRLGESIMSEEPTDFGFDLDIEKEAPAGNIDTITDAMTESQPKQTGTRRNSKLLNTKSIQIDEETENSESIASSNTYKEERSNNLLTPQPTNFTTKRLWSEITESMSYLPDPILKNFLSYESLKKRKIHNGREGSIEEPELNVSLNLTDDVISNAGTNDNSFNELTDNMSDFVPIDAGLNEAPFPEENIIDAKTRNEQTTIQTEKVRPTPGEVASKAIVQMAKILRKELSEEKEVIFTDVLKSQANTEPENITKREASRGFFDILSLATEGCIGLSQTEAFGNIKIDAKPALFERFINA

[1] = target: T2, Smc3^E1155Q S72C K1004C (S. cerevisiae) (UniProt P47037); experiment: cross-linking; in vivo BMOE cross-link of cysteine pairs in yeast cells arrested in late G1 by non-degradable Sic1(9m); Scc1-PK immunoprecipitated, western blot, band intensities quantified
T2 sequence: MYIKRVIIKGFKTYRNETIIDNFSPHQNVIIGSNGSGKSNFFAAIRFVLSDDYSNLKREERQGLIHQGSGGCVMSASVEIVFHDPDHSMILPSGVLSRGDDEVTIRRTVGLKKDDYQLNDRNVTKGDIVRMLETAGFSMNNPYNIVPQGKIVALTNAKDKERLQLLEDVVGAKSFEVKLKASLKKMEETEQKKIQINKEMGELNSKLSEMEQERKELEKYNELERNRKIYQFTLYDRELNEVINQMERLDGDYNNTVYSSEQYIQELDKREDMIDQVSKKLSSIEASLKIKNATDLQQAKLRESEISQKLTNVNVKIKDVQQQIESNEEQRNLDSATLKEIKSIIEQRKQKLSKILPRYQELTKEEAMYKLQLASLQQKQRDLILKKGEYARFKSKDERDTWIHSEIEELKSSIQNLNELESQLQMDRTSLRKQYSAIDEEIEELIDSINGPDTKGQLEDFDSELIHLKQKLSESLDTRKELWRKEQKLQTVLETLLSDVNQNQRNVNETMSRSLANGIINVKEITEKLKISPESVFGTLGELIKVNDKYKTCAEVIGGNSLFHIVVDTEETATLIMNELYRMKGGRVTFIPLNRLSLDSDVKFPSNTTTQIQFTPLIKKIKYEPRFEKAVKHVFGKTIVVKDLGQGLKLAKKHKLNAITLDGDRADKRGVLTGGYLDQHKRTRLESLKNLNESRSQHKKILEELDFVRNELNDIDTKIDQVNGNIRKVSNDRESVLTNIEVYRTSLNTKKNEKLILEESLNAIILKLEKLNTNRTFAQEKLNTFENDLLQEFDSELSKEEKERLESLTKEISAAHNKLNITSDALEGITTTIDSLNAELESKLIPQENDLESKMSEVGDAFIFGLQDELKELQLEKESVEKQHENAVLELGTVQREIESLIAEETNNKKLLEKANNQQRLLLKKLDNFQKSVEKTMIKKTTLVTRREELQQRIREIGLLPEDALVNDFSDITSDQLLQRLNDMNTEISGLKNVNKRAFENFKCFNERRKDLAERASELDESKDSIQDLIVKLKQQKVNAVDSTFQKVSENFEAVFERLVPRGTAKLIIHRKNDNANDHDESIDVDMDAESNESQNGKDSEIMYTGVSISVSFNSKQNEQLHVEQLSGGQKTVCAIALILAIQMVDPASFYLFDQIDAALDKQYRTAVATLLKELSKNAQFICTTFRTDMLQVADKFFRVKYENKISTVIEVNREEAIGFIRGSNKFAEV

[2] = target: T3, Smc3 S72C K1004C (S. cerevisiae) (UniProt P47037); experiment: as above
T3 sequence: T2 sequence with Q1155E

Measured: binding

B1: Scc2 D369C E819C (protein, UniProt Q04002 1-1493)
chain: MSYPGKDKNIPGRIIEALEDLPLSYLVPKDGLAALVNAPMRVSLPFDKTIFTSADDGRDVNINVLGTANSTTSSIKNEAEKERLVFKRPSNFTSSANSVDYVPTNFLEGLSPLAQSVLSTHKGLNDSINIEKKSEIVSRPEAKHKLESVTSNAGNLSFNDNSSNKKTKTSTGVTMTQANLAEQYLNDLKNILDIVGFDQNSAEIGNIEYWLQLPNKKFVLTTNCLTKLQMTIKNITDNPQLSNSIEITWLLRLLDVMVCNIKFSKSSLKMGLDDSMLRYIALLSTIVLFNIFLLGKNDSNLHRESYIMEPVNFLSDLIESLKILTIEYGSLKIEFDTFQEALELLPKYIRNGPFLDDNVTAKLVYIFSCLLMNNDIEATTNIQFQSFWDNVKRISSDILVSLFGSFDQQRGFIIEELLSHIEKLPTKRIQKKLRKVGNQNIYITDFTFTLMSMLENINCYSFCNQMKDIAPENIDLLKNEYKKQEEFLFNIVEHINDTILERFFKNPSALRYVIDNFVQDLLLLISSPQWPVTEKILSSLLKRLLSVYSPSMQVSANIETICLQLIGNIGSTIFDIKCSTRDHEDNNLIKMINYPETLPHFFKSFEECIAYNETIKCRRSATRFLWNLRLGTILILEEYTKDAKEQIITVDNELKKILEQIKDGGLGPELENREADFSTIKLDYFSILHAFELLNLYDPYLKLILSLLAKDKIKLRSTAIKCLSMLASKDKVILSNPMVKETIHRRLNDSSASVKDAILDLVSINSSYFEFYQQINNNYNDDSIMVRKHVLRINEKMYDETNDIVTKVYVIARILMKICDEEDNIIDMARLILLNRWILKVHEVLDQPEKLKEISSSVLLVMSRVAIMNEKCSQLFDLFLNFYLLNKEAHSKEAYDKITHVLTILTDFLVQKIVELNSDDTNEKNSIVDKQNFLNLLAKFADSTVSFLTKDHITALYPYMVSDEKSDFHYYILQVFRCTFEKLANFKQKFLYDLETTLLSRLPKMNVREIDEAMPLIWSVATHRHDTARVAKACSSCLSHLHPYINKANNEEAAIVVDGKLQRLIYLSTGFARFCFPKPSNDKIAFLQEGETLYEHITKCLLVLSKDKITHVIRRVAVKNLTKLCGNHPKLFNSRHVLHLLDKEFQSDQLDIKLVILESLYDLFLLEERKSVRNTGVNSTLSSNSILKKKLLKTNRVEFANDGVCSALATRFLDNILQLCLLRDLKNSLVAIRLLKLILKFGYTNPSHSIPTVIALFASTSQYIRHVAYELLEDLFEKYETLVFSSLSRGVTKAIHYSIHTDEKYYYKHDHFLSLLEKLCGTGKKNGPKFFKVLKRIMQSYLDDITDLTSTNSSVQKSIFVLCTNISNITFVSQYDLVSLLKTIDLTTDRLKEVIMDEIGDNVSSLSVSEEKLSGIILIQLSLQDLGTYLLHLYGLRDDVLLLDIVEESELKNKQLPAKKPDISKFSAQLENIEQYSSNGKLLTYFRKHVKDT
binds: all assays above
